# Inconclusive results, whose numbers are uncertain, are shown with a selection of clear calls. For part of these data: Potencies of inconclusive entries are doubtful fits and often do not repeat. Active and inactive are the calls of the source. The call rests on the fitted dose curve; in most records, active means well fitted curve in the direction sought with a large enough effect; inconclusive means small, poorly fitted or top-dose-only effect, or another doubt; inactive means no such curve, though single readings can be large; an effect the other way counts as inactive or inconclusive.
# Tests used:
# [1] = molecular target: Fructose-bisphosphate aldolase (Giardia intestinalis (strain ATCC 50803 / WB clone C6)) (UniProt A8B2U2); experiment: qHTS Assay for Inhibitors of Fructose-1,6-bisphosphate Aldolase from Giardia Lamblia: Primary screen confirmation (AID 2787); further: nearly all actives have a fitted effect of over 45% in size
# UniProt A8B2U2, sequence (A8B2U2 whole entry, looked up): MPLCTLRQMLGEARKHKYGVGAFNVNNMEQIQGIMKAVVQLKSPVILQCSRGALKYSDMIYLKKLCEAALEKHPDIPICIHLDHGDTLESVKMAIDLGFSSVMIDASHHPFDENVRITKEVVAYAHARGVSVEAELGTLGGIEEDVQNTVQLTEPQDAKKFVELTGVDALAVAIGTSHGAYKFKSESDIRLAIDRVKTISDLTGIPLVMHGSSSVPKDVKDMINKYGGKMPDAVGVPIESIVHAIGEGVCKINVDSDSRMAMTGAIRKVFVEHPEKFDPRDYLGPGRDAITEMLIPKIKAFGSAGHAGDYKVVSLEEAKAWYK
# In short: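 FBPA (40 nM in enzyme reagent, with 30 uM ZnCl2) was preincubated 10 min at RT with compound up to 57.5 uM final. Substrate plus coupled detection system was then added, and fluorescence (525/598 nm) was read after 20 min at RT.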
# [2] = molecular target: Fructose-bisphosphate aldolase A (Oryctolagus cuniculus) (UniProt P00883); experiment: qHTS Assay for Inhibitors of Fructose-1,6-bisphosphate Aldolase from Giardia Lamblia: Rabbit FBPA Selectivity (AID 2794); further: nearly all actives have a fitted effect of over 60% in size
# UniProt P00883, sequence (P00883 whole entry, looked up): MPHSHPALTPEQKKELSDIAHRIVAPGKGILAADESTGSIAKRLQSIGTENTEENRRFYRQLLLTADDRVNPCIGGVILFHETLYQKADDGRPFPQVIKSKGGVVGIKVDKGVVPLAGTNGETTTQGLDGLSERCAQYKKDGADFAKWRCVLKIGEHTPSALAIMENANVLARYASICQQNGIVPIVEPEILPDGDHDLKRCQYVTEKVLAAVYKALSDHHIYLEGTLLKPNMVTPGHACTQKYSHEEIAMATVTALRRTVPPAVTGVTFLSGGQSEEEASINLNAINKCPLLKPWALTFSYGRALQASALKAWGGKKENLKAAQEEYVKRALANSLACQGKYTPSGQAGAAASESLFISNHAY
# In short: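 AmpLite Red readout, ex/em 525/598 nm. Rabbit FBPA, GAP-linked coupling enzymes; 10 min cpd preincubation, then 20 min after substrate, both RT. Concentration-response up to 57.5 uM final.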
# [3] = qHTS Assay for Inhibitors of Fructose-1,6-bisphosphate Aldolase from Giardia Lamblia: Coupling assay counterscreen confirmation (AID 2795); further: nearly all actives have a fitted effect of over 55% in size
# In short: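 Primary-screen hits were tested against the coupling system alone (GAPDH-based, glyceraldehyde-3-phosphate), without aldolase. Compounds at up to 57.5 uM final were preincubated 10 min at RT with coupling enzymes, then substrate/detection mix (AmpLite Red) was added for 20 min at RT; fluorescence read at 525/598 nm.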
# [4] = molecular target: Tyrosyl-DNA phosphodiesterase 1 (Homo sapiens) (UniProt Q9NUW8); experiment: Confirmation Assay for Inhibitors of Tyrosyl-DNA Phosphodiesterase (TDP1) (AID 489007); conditions: recombinant human TDP1 enzymatic activity, dose-response; further: nearly all actives have a fitted effect of over 40% in size
# UniProt Q9NUW8, sequence (Q9NUW8 whole entry, looked up): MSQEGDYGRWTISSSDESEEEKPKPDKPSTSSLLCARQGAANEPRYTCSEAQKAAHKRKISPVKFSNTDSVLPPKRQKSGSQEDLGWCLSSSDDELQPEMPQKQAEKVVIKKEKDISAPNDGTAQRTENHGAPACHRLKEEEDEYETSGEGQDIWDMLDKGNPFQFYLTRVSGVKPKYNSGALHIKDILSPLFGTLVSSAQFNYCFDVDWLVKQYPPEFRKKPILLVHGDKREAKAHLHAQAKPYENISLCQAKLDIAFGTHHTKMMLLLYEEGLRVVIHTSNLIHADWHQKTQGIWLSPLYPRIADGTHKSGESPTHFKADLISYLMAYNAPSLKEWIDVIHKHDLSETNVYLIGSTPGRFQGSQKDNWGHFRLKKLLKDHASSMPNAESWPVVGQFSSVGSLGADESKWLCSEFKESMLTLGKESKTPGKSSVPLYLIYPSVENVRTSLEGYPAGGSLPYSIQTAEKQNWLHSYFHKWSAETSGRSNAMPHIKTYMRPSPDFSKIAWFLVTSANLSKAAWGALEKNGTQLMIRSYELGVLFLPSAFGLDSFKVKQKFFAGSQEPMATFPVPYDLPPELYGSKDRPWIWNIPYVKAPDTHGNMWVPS
# In short: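 Loss of AlphaScreen signal reports Tdp1 cleavage of a dual-labelled DNA substrate. Conditions: 1 nM E. coli-derived enzyme, 15 nM substrate, 15 min compound preincubation, 5 min reaction, 10 min bead incubation, all at room temperature.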
# [5] = molecular target: Rap guanine nucleotide exchange factor 3 (Homo sapiens) (UniProt O95398); experiment: Confirmatory qHTS for antagonist of cAMP-regulated guanine nucleotide exchange factor 3 (EPAC1) (AID 1645880); conditions: EPAC1 Rap1B-BODIPY-GDP exchange, fluorescence; activity, negative = inhibition: at 115 µM (top of the series); further: nearly all actives have a fitted effect of over 55% in size;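 on activity, negative = inhibition: plate controls were DMSO only for no effect and full effect of the ATA control for full effect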
# UniProt O95398, sequence (O95398 whole entry, looked up): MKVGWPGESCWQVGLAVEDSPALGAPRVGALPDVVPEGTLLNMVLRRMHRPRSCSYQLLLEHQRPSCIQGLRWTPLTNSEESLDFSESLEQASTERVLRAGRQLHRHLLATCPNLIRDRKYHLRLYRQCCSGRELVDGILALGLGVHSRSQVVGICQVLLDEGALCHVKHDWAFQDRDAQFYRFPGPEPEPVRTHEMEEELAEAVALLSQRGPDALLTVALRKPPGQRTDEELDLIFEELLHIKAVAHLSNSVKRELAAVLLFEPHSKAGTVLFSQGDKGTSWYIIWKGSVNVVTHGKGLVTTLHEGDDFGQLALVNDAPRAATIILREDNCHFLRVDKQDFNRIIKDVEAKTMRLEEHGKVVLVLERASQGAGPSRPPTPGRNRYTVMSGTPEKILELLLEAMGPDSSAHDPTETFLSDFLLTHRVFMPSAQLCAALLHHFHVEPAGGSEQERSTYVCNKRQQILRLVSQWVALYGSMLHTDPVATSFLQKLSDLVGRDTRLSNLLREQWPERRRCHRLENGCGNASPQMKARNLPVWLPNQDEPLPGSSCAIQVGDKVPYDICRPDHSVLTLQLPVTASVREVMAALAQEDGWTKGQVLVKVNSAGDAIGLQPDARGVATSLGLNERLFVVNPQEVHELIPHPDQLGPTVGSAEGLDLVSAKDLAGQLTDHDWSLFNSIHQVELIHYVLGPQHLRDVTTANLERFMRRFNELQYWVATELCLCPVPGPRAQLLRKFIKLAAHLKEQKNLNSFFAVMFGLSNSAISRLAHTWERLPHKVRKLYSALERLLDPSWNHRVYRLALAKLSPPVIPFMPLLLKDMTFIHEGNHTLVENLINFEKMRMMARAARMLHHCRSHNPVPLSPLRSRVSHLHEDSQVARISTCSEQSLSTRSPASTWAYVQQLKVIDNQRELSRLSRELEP
# In short: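 Released BODIPY-GDP fluoresces less than Rap1-bound BODIPY-GDP; the signal is followed at 480/540 nm at 5-min intervals over 30 min, after 5 min at room temperature. Reactions contain 100 nM EPAC1, 250 nM RAP1B-BODIPY-GDP and 50 uM GDP; results are normalized to ATA and DMSO.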
# [6] = molecular target: Rap guanine nucleotide exchange factor 3 (Homo sapiens) (UniProt O95398); experiment: Confirmatory qHTS for agonist of cAMP-regulated guanine nucleotide exchange factor 3 (EPAC1) (AID 1645881); conditions: EPAC1 Rap1B BODIPY-GDP exchange fluorescence; activation: at 154 µM (top of the series), 100% = cAMP control response; further: nearly all actives have a fitted effect of over 75% in size;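 on activation: EPAC1 catalysed release of BODIPY-GDP from Rap1B seen as fluorescence loss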
# [7] = molecular target: Rap guanine nucleotide exchange factor 4 (Homo sapiens) (UniProt Q8WZA2); experiment: Confirmatory qHTS for agonist of cAMP-regulated guanine nucleotide exchange factor 4 (EPAC2) (AID 1645884); conditions: EPAC2 GEF activity, Rap1B-BODIPY-GDP fluorescence; activation: at 154 µM (top of the series), percent relative to cAMP agonist control;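 further: nucleotide exchange releases bodipy-GDP from Rap1 and this lowers its fluorescence; nearly all actives have a fitted effect of over 65% in size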
# UniProt Q8WZA2, sequence (Q8WZA2 whole entry, looked up): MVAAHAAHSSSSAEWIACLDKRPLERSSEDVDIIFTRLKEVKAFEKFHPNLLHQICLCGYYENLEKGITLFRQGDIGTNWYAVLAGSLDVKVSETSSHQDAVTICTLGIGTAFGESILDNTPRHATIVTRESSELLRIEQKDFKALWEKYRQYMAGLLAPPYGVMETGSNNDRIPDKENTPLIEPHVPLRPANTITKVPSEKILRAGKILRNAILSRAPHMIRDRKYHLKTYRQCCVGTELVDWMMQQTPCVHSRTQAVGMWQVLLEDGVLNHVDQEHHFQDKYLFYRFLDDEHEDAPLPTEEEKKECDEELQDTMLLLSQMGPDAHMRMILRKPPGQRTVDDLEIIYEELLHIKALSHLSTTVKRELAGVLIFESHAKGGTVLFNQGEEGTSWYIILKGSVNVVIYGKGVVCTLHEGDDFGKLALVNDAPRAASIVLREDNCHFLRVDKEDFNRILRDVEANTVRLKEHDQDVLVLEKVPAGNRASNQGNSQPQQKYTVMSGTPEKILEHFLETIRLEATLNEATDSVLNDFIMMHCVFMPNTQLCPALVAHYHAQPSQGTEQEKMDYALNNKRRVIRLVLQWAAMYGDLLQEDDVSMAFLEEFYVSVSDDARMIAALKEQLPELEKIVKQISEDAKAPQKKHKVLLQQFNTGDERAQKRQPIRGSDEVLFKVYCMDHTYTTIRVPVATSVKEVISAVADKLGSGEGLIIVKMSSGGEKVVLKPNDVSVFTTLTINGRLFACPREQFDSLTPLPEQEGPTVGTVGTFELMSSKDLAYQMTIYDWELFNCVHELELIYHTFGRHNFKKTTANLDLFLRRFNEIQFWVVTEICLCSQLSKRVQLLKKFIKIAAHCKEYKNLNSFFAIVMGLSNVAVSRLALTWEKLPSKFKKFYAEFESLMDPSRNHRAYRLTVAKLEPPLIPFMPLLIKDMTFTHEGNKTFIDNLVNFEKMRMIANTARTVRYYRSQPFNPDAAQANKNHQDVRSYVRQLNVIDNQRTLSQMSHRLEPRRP
# [8] = molecular target: Rap guanine nucleotide exchange factor 4 (Homo sapiens) (UniProt Q8WZA2); experiment: Confirmatory qHTS for antagonist of cAMP-regulated guanine nucleotide exchange factor 4 (EPAC2) (AID 1645885); conditions: activity change, negative = inhibition: at 12.7 µM (top of the series) unless noted; further: nearly all actives have a fitted effect of over 25% in size; on activity change, negative = inhibition: on the % scale 0 is the no-effect control and ±100 the full control effect
# [9] = molecular target: Rap guanine nucleotide exchange factor 3 (Homo sapiens) (UniProt O95398); experiment: Counterscreen qHTS for agonist of cAMP-regulated guanine nucleotide exchange factor 3 (EPAC1) (AID 1645889); conditions: EPAC1 Rap1B-BODIPY-GDP exchange, fluorescence; activation: at 154 µM (top of the series) unless noted; further: nearly all actives have a fitted effect of over 40% in size; on activation: % of control where 0% means no effect
# In short: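 Measured: fluorescence of BODIPY-GDP bound to Rap1B, which falls as exchange proceeds. Conditions include 50 uM competing GDP, 5 and 30 min reads, and a later cAMP challenge for antagonist detection.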
# [10] = molecular target: Tumor susceptibility gene 101 protein (Homo sapiens) (UniProt Q99816); experiment: qHTS Assay for Iinhibitors of HIV-1 Budding by Blocking the Interaction of PTAP/TSG101: Hit Validation (AID 651600); further: nearly all actives have a fitted effect of over 70% in size
# UniProt Q99816, sequence (Q99816 whole entry, looked up, the tested form may be a part): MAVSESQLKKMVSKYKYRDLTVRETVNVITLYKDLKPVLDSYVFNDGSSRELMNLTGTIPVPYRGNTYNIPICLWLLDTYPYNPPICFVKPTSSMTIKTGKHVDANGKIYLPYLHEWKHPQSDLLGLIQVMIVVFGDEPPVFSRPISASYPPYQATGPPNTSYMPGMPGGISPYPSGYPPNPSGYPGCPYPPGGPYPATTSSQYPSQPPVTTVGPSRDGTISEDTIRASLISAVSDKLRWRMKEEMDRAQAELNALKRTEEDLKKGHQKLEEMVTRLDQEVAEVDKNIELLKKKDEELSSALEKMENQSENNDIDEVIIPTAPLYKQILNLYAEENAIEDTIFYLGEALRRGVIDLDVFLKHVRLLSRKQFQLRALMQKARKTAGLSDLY
# In short: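 Tsg101 binding domain 10 uM + FITC-PTAP peptide 50 nM (final), 10 mM HEPES pH 7.5/0.15 M NaCl/0.01% Tween 20/3 mM EDTA/0.1 mM TCEP; 20 min RT; FP read, FITC filters.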
# [11] = molecular target: DNA repair nuclease/redox regulator APEX1 (Homo sapiens) (UniProt P27695); experiment: Confirmation qHTS Assay for Inhibitors of the Human Apurinic/apyrimidinic Endonuclease 1 (APE1) (AID 2572); further: nearly all actives have a fitted effect of over 30% in size
# UniProt P27695, sequence (P27695 whole entry, looked up): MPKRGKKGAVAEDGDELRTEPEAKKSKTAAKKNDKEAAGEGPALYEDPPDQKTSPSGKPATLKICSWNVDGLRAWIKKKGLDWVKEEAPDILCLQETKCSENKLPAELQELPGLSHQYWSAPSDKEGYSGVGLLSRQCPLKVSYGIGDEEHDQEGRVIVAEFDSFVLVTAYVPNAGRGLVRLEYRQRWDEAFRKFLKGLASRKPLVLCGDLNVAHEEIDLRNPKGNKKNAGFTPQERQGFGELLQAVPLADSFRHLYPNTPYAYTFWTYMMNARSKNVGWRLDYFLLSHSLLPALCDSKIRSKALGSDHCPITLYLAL
# In short: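 APE1 endonuclease activity was assessed as fluorescence released when the enzyme nicked a quenched abasic-site duplex (50 nM final). Compounds were preincubated with enzyme 15 min at room temperature before substrate addition.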
# [12] = molecular target: DNA polymerase kappa (Homo sapiens) (UniProt Q9UBT6); experiment: qHTS for Inhibitors of Polymerase Kappa: Confirmatory Assay for Cherry-picked Compounds (AID 720501); conditions: purified Pol-kappa, fluorescent strand-displacement substrate
# UniProt Q9UBT6, sequence (Q9UBT6 whole entry, looked up): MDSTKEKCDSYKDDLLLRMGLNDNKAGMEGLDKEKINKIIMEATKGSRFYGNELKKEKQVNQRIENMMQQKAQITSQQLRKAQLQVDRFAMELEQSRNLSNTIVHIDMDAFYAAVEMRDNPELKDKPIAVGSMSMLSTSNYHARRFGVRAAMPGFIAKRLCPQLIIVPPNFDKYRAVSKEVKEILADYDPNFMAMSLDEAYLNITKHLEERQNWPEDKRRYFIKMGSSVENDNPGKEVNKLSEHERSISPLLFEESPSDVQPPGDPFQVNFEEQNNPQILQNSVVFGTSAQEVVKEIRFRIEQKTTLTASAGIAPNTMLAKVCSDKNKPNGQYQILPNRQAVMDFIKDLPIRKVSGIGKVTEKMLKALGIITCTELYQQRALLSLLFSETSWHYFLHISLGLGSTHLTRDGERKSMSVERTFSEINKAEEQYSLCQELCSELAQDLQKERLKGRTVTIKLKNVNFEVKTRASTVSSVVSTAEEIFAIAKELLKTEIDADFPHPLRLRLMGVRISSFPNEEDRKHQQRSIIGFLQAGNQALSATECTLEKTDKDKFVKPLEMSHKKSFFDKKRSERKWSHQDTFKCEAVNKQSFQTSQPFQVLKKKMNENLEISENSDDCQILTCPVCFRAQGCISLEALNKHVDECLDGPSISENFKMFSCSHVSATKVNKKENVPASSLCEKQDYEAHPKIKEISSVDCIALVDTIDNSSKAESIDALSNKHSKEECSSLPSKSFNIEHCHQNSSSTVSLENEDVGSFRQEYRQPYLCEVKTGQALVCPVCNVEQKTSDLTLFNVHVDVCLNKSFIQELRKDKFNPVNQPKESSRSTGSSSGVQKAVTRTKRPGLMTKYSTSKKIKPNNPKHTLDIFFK
# In short: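 Human Pol-kappa, dispensed at 10 nM, was preincubated with compounds for 15 min at room temperature. Reactions were started with primer/template substrate (50 nM final) carrying a TAMRA reporter strand and BHQ-2-quenched template, and fluorescence (ex 525/em 598 nm) was read at 0 and 10 min.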
# Potency means the concentration at half of the fitted maximal effect; tags describe the fitted curve by direction and shape.
compound,measurement,setting,value
Nc1ccc2nc3c(=O)[nH]c(=S)[nH]c3nc2c1,Potency,[1],"inconclusive: 3.26 µM [inhibitor, partial curve]"
same,Potency,[2],"inconclusive: 4.11 µM [inhibitor, partial curve]"
same,Potency,[3],"inconclusive: 4.61 µM [inhibitor, full curve]"
same,Potency,[4],active: 39.8 µM
same,Potency,[5],"inconclusive: 0.757 µM [inhibitor, full curve, poor fit]"
same,Potency,[6],active: 79.4 µM
same,Potency,[7],active: 100 µM
same,Potency,[8],"inconclusive: 95.3 µM [inhibitor, single point]"
same,Potency,[9],active: 44.7 µM
O=C(Nc1cc(S(=O)(=O)N2CCCCC2)ccc1O)c1ccccc1NS(=O)(=O)c1ccc(F)c(F)c1,Potency,[5],"inconclusive: 50.1 µM [inhibitor, partial curve, poor fit]"
same,activation,[6],inconclusive: 19.9% [activator]
same,Potency,[7],active: 0.282 µM
same,Potency,[8],inactive
same,activation,[9],inconclusive: 16.4% [activator] [at 30.8 µM]
COC(=O)CN1C(=S)N(c2ccc(OC)cc2)C(=O)/C1=C/c1ccc(N2CCOCC2)cc1,Potency,[10],"inconclusive: 36.6 µM [inhibitor, single point]"
same,Potency,[5],inactive
same,Potency,[6],active: 100 µM
same,Potency,[7],active: 100 µM
same,Potency,[8],active: 75.7 µM
same,Potency,[9],active: 28.2 µM
CCCCN1C(=O)/C(=C/C=C2/CC(C)(C)CN2C)SC1=S,Potency,[5],inactive
same,Potency,[6],"inconclusive: 17.8 µM [activator, partial curve, poor fit]"
same,Potency,[7],"inconclusive: 126 µM [activator, single point]"
same,Potency,[8],"inconclusive: 42.6 µM [inhibitor, partial curve, poor fit]"
same,Potency,[9],"inconclusive: 11.2 µM [activator, partial curve, poor fit]"
Oc1ccc(/C(Cc2ccccn2)=N\Nc2ccccc2)c(O)c1,Potency,[5],"inconclusive: 37.9 µM [inhibitor, partial curve, poor fit]"
same,Potency,[6],"inconclusive: 89.1 µM [activator, partial curve]"
same,Potency,[7],"inconclusive: 112 µM [activator, partial curve, poor fit]"
same,Potency,[8],"inconclusive: 0.757 µM [inhibitor, partial curve, poor fit]"
same,Potency,[9],"inconclusive: 15.8 µM [activator, partial curve, poor fit]"
Cc1nc([N+](=O)[O-])c(Br)n1Cc1ccc(Cl)c(Cl)c1,Potency,[5],"inconclusive: 23.9 µM [inhibitor, full curve]"
same,Potency,[6],inactive
same,Potency,[7],"inconclusive: 31.6 µM [activator, partial curve, poor fit]"
same,Potency,[8],"inconclusive: 37.9 µM [inhibitor, single point]"
same,activation,[9],inconclusive: 57.4% [activator]
COc1ccc(-n2c(O)c(/C=N/NS(=O)(=O)c3cc(C)ccc3C)c3ccccc3c2=O)cc1OC,Potency,[5],inactive
same,Potency,[6],inactive
same,Potency,[7],"inconclusive: 126 µM [activator, single point]"
same,Potency,[8],active: 33.8 µM
same,Potency,[9],"inconclusive: 14.1 µM [activator, full curve]"
COc1cc(C)nc(N2CCCC(C(=O)Nc3cc(Cl)ccc3OC)C2)n1 (stereo not drawn),Potency,[5],"inconclusive: 84.9 µM [inhibitor, partial curve, poor fit]"
same,Potency,[6],"inconclusive: 79.4 µM [activator, partial curve, poor fit]"
same,Potency,[7],"inconclusive: 56.2 µM [activator, partial curve, poor fit]"
same,Potency,[8],"inconclusive: 2.39 µM [inhibitor, partial curve, poor fit]"
same,Potency,[9],"inconclusive: 3.55 µM [activator, partial curve, poor fit]"
CCN(CC)c1ccc2cc(-c3nnc(-c4ccccc4)o3)c(=O)oc2c1,Potency,[5],inactive
same,Potency,[6],active: 15.8 µM
same,Potency,[7],active: 15.8 µM
same,Potency,[8],active: 4.26 µM
same,Potency,[9],active: 15.8 µM
Cc1ccc(N2C(=O)c3cccc4c(N)ccc(c34)C2=O)c2cccnc12,Potency,[5],inactive
same,Potency,[6],"inconclusive: 112 µM [activator, partial curve, poor fit]"
same,Potency,[7],active: 112 µM
same,Potency,[8],inactive
same,Potency,[9],active: 10 µM
O=C(O)c1ccc(COc2ccccc2/C=C2/NC(=O)N(c3cccc(Cl)c3)C2=O)cc1,Potency,[11],active: 15.8 µM
same,Potency,[4],active: 10 µM
same,Potency,[12],active: 18.9 µM
same,Potency,[5],active: 37.9 µM
same,Potency,[6],"inconclusive: 89.1 µM [activator, partial curve]"
same,Potency,[7],"inconclusive: 89.1 µM [activator, partial curve, poor fit]"
same,Potency,[8],"inconclusive: 37.9 µM [inhibitor, partial curve, poor fit]"
same,activation,[9],inconclusive: 32.5% [activator]

# From PubChem BioAssay (NCATS)
